Our source for the binding values is PMC3630089, “ATP-Dependent Chromatin Remodeling by Cockayne Syndrome Protein B and NAP1-Like Histone Chaperones Is Required for Efficient Transcription-Coupled DNA Repair” (PLoS Genetics, 2013).

Amino acid sequences for entries named in this document (tags omitted). A change or cut given only in a name is not applied to a line headed by its entry. Chains listed by the source or under a name are the forms on record and can include a tag or linker.
UniProt Q03468: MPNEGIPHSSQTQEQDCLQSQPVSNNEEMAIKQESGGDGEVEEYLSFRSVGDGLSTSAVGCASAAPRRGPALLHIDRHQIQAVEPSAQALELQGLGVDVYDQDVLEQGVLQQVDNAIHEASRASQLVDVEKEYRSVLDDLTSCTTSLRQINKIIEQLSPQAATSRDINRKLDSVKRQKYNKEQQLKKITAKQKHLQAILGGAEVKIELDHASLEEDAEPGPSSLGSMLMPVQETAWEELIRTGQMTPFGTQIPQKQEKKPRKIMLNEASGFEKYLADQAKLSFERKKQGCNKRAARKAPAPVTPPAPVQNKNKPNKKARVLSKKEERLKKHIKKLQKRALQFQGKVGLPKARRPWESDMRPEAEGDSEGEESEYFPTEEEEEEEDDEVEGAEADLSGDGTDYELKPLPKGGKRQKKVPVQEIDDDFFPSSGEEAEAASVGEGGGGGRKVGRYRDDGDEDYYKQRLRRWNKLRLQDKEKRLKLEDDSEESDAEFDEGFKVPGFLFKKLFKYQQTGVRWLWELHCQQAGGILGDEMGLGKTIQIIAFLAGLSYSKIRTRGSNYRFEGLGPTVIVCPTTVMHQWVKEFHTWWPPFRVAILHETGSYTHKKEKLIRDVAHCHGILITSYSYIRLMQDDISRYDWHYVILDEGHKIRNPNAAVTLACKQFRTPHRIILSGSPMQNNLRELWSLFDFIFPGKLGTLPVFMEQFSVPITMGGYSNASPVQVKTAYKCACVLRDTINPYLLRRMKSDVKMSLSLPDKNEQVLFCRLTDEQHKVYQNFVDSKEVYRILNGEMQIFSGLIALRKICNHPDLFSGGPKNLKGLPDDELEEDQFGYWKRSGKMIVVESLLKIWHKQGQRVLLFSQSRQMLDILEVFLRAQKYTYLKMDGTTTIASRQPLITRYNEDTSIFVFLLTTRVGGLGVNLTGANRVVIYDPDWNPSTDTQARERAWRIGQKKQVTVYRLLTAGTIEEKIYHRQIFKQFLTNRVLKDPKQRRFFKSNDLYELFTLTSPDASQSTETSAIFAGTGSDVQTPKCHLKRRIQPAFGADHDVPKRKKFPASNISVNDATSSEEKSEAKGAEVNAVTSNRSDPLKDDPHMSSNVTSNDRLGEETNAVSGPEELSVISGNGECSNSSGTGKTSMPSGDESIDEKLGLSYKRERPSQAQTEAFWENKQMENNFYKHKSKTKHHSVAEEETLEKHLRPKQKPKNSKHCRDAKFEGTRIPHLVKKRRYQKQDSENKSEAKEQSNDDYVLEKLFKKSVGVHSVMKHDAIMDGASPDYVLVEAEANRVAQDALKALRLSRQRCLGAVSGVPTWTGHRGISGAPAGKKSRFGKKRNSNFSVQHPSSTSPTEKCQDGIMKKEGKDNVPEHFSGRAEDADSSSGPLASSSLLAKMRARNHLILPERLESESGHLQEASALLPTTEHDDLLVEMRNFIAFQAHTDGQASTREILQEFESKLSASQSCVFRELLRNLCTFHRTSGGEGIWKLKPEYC
CSBΔN1 stably expressed in CS1AN-Sv cells (Q03468, form named): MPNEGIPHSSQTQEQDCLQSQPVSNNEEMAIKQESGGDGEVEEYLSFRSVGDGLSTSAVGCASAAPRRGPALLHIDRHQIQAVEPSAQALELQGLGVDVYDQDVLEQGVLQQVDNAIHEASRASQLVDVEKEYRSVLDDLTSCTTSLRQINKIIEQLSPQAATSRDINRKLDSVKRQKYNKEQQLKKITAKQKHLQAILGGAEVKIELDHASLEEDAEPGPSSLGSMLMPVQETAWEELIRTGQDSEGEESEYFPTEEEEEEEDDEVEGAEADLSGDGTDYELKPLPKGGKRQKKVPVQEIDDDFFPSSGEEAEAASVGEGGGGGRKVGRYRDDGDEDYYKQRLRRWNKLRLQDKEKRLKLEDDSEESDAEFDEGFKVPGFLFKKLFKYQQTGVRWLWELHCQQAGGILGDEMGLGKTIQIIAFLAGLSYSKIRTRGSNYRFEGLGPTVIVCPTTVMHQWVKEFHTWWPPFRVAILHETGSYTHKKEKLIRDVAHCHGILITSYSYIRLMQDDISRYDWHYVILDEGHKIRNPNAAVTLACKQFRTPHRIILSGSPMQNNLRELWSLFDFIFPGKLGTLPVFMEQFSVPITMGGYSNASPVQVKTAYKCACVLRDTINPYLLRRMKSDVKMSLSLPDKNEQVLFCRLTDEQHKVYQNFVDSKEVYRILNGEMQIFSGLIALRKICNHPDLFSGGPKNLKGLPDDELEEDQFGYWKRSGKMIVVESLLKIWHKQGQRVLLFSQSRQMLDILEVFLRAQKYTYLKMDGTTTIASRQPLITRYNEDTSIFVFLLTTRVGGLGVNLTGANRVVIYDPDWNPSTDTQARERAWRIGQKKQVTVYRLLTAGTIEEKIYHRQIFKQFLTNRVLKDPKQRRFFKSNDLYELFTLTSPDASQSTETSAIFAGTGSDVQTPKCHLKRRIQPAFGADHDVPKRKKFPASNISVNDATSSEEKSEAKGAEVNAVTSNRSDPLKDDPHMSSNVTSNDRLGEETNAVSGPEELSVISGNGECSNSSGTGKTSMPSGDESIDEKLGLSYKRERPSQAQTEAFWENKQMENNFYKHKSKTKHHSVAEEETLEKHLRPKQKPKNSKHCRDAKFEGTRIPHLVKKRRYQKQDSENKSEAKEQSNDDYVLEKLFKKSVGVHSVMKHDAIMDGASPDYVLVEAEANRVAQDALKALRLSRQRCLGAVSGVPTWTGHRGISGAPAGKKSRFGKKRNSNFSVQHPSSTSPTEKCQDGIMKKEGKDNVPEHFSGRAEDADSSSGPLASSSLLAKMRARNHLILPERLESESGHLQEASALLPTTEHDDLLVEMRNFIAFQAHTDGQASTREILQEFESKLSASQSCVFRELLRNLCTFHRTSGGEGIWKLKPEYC
UniProt P23025: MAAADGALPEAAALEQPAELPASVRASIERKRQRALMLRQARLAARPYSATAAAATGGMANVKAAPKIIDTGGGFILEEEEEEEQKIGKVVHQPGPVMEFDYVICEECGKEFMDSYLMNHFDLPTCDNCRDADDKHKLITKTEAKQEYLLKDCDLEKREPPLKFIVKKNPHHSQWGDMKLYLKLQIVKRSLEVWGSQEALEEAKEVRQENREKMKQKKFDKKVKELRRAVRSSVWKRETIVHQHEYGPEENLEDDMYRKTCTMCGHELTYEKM
UniProt P19447: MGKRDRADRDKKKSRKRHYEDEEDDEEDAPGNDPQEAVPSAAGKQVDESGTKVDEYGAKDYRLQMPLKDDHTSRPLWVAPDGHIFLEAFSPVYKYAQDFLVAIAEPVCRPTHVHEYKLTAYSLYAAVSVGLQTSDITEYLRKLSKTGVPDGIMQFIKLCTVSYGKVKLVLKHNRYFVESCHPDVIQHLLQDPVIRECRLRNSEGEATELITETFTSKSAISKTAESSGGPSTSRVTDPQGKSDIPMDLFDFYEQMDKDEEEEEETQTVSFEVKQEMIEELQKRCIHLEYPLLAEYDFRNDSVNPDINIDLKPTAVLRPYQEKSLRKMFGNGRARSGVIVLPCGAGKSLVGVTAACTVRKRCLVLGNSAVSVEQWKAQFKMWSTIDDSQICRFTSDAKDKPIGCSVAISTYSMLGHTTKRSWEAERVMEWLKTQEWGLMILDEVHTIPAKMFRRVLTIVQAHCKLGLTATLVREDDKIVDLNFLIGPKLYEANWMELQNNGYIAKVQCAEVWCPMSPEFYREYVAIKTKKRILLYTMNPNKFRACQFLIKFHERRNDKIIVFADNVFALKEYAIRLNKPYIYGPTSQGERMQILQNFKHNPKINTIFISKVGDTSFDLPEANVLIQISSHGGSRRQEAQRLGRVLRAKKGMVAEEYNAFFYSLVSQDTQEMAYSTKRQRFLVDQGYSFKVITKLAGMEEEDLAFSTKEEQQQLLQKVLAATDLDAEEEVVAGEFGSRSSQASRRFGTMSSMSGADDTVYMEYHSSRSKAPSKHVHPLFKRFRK
UniProt Q16531: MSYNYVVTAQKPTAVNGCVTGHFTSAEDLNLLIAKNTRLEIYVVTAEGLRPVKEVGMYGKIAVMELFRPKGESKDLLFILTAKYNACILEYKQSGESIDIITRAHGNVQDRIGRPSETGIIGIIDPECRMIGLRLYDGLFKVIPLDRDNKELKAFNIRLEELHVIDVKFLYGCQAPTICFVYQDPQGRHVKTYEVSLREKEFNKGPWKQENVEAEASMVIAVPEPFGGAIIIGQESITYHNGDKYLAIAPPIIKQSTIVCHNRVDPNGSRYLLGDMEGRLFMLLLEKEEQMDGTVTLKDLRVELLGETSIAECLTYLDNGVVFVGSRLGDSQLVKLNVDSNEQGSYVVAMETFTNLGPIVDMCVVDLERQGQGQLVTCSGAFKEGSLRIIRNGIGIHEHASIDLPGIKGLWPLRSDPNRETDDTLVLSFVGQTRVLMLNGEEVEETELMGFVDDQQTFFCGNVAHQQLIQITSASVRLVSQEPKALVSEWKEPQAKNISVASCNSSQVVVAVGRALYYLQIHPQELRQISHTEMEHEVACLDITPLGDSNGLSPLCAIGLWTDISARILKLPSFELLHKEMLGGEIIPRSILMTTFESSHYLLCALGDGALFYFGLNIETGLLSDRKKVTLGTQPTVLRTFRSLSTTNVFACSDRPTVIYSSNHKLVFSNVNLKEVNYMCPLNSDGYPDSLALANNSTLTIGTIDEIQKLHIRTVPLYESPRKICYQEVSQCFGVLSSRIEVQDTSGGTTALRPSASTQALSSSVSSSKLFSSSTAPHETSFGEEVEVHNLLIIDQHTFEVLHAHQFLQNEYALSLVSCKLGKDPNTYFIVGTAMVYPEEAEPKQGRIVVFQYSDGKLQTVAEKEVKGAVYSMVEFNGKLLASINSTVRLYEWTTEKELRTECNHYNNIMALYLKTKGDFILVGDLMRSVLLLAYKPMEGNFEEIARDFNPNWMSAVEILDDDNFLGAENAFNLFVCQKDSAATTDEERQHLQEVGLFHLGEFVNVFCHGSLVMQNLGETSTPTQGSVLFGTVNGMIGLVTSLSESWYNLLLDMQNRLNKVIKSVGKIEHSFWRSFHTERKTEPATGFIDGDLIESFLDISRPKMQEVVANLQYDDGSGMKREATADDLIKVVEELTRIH

For assay [1], the target named is CSB stably expressed in CS1AN-Sv cells (human) (UniProt Q03468). Put plainly: condition: only cells without UV irradiation (mock treated); ChIP-western (immunoprecipitation after formaldehyde cross-linking); as a6 but cells mock treated (no UV irradiation).
For assay [2], the target named is CSBΔN1 stably expressed in CS1AN-Sv cells (human) (UniProt Q03468). The description is as above.
In assay [3] the target is CSB stably expressed in CS1AN-Sv cells (human) (UniProt Q03468). Description: ChIP-western (immunoprecipitation after formaldehyde cross-linking); CS1AN-Sv cells expressing CSB or CSBΔN1, UV 25 J/m^2 (or 6 J/m^2, chromatin-enriched fraction), 1 hour recovery, fixed with 1% formaldehyde for 10 min, ChIP with anti-CSB antibodies, reverse-crosslinked, Western blot.
In assay [4] the target is CSBΔN1 stably expressed in CS1AN-Sv cells (human) (UniProt Q03468). The assay is described as above.
Assay [5] concerns the target T1, NAP1L1, endogenous in HeLa cells (human (endogenous in HeLa)) (UniProt P55209).
T1 sequence: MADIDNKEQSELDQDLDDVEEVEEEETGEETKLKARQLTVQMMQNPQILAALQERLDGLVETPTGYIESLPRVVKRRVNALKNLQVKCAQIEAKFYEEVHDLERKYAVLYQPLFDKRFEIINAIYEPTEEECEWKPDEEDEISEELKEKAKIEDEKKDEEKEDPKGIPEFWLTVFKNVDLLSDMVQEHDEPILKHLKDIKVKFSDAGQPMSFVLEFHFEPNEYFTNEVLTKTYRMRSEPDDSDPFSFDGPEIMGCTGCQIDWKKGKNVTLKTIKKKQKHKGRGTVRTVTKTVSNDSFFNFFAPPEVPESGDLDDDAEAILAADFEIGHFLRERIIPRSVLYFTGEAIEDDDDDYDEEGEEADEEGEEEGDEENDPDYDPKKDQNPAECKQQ
Description: co-IP; nuclei from HeLa cells with or without UV treatment (100 J/m^2); immunoprecipitation with an anti-NAP1L1 antibody; Western blot.

The target of assay [6] is T1, NAP1L1, endogenous in HeLa cells (human (endogenous in HeLa)). Put plainly: co-IP; endogenous proteins from chromatin-enriched fractions of UV-irradiated HeLa cells; anti-CSB, anti-NAP1L1 or anti-NAP1L4 antibodies cross-linked to Protein A/G agarose beads; Western blot.
Assay [7] concerns the target T2, NAP1L4, endogenous in HeLa cells (human (endogenous in HeLa)) (UniProt Q99733).
T2 sequence: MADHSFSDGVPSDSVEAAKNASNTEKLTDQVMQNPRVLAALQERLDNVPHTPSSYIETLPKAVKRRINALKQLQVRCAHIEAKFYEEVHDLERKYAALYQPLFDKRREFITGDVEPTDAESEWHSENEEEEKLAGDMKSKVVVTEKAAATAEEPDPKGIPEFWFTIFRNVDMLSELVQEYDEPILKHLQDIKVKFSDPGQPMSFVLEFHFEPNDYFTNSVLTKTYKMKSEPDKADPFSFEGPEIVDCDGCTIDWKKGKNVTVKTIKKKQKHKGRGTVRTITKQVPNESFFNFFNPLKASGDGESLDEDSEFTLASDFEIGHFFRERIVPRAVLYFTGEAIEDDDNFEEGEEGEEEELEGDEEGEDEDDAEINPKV
The description is as above.

Assay [8] has as its target T3, NAP1L1 (NAP1-like histone chaperone), endogenous in CS1AN-Sv cells (human) (UniProt P55209).
T3 sequence: T1 sequence
Put plainly: co-IP; CS1AN-Sv cells stably expressing CSB or CSBΔN1, with or without UV treatment (100 J/m^2); immunoprecipitation with an anti-NAP1L1 antibody.

These are yes or no findings as the source states them, for the method shown. Binding seen in cells or lysates may run through a third protein. Some results given as binding are weak or reduced against the parent protein; the word gives no strength. For some of these results: Where a sequence is shown, tags or fusion partners need not be part of it.

For “Xeroderma pigmentosum group A-complementing protein (XPA) (from UniProt P23025 1-273)”, the binding entry in assay [1] is given as “no binding”; in assay [2], “no binding”; in assay [3], “binds”; in assay [4], “binds”.
As for “DNA excision repair protein ERCC3 (from UniProt P19447 1-782)”, the binding result is given as “no binding” in assay [1], “no binding” in assay [2], “binds” in assay [3] and “binds” in assay [4].
As for “CSB, endogenous in HeLa cells (from UniProt Q03468 1-1493) (enzyme)”, the binding result in assay [5], in assay [6] and in assay [7] was “binds” each time.
In the case of “DNA damage-binding protein 1 (DDB1) (from UniProt Q16531 1-1140)”, the binding entry in assay [1] was “no binding”; in assay [2], “no binding”; in assay [3], “binds”; in assay [4], “binds”.
As for “CSB stably expressed in CS1AN-Sv cells (from UniProt Q03468 1-1493) (enzyme)”, in assay [8], the binding entry was “binds”.
